Measured values from the supplement of paper PMC3334620.
The full ranking holds about 33,000 sequences; the median of “E-score (-0.5 to 0.5)” is about -0.017, and the highest 2% start at about 0.3. The list shows a part of the results.

These sequences were tested against T1, Sut1 (UniProt P53032) (assay: PBM E-score (8-mer binding enrichment) (E-score (-0.5 to 0.5)); higher = stronger / more preferred TF binding; most listed sequences are background and not binding sites). Conditions: protein concentration: 200 nM; construct: GST-full length.
T1 sequence: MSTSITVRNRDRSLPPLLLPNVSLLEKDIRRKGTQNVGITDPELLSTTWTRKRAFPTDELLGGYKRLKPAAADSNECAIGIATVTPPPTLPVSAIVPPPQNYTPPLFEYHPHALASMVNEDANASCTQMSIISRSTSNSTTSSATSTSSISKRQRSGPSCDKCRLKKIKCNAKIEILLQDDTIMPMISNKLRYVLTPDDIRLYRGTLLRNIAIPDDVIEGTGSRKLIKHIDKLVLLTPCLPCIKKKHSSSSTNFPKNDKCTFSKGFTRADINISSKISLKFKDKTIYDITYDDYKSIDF
Method: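 Universal 'all 10-mer' protein binding microarrays (Agilent AMADID 015681) probed with GST-tagged S. cerevisiae TFs (full-length or DBD) made by in vitro transcription/translation (PURExpress), about 100-200 nM. Bound TF was detected with fluorescent anti-GST. Each ungapped 8-mer (which stands for itself and its reverse complement) is scored by the PBM enrichment score (E-score), a modified Wilcoxon-Mann-Whitney statistic from -0.5 to +0.5, computed with the Universal PBM Analysis Suite. Scale: above 0.35 generally sequence-specific binding.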

Sequence	PBM E-score
ACATGCAG	-0.122
AGCAAGCC	-0.186
AAGCGTGA	-0.0725
CCGGATGA	0.143
CCTCGACC	-0.286
CTCAGCGA	-0.204
AACAAACT	0.197
CCACCCGG	-0.228
ACTCAAAG	0.0714
AGTGGTCA	-0.0841
ATGAGGTC	0.0148
CAAACGAA	0.116
GAGCATGA	-0.17
GAAGTATA	0.163
CCTGCACC	-0.117
CACGGTAC	-0.116
CATTATCC	0.078
AAAGATGG	0.00344
GCGTTCTA	0.109
ATCGTTTC	0.163
CCAGAACA	-0.0168
AAAACTAG	0.0495
GCAAAGCC	-0.285
TCTTGACA	0.0727

Sequence	PBM E-score
ACTAAGTG	0.0363
CGGGCGTA	-0.177
CGGTCTAA	0.0285
GAGGAGCA	-0.15
CGGAGCGC	0.118
GTTCTGAA	0.0848
CAGCACCA	-0.229
TAGGCTCA	-0.222
CGATGTTC	-0.192
GGTCCGGA	0.402
GAACAAGA	0.178
GCGGCGCA	-0.00306
ATTGGTGC	0.133
TAATAATA	0.282
CTATACAA	0.175
CACAACTG	-0.302
CTTGGAAC	0.0161
GGCAGCAC	-0.0985
CAGATCCG	0.235
AAATAGCC	0.0267
ATCCAGAT	-0.00444
TCAGCACA	0.0304
ACGGATGA	0.0548
CCCCTTCA	-0.256

Sequence	PBM E-score
ACGTTAGT	0.122
GGCTAGGA	-0.172
GTTCGGAA	0.289
CTCCATGC	-0.29
CCGATCGG	0.232
AATCCGCC	-0.0498
AAATGCTT	0.0544
GAGTCGGC	0.00136
AGGGTGTG	-0.207
ACCTTCGT	-0.0335
CTCTTTCA	-0.0293
CGTCAGAA	-0.194
GCGTACCA	-0.194
AGTGGCGC	-0.0966
GGCAGACC	-0.261
ACTAGCCT	0.0941
ACACCCCT	-0.232
ACCAGGAA	-0.00996
AACCTGGT	-0.129
ACCCCGCC	0.0662
ACCAACAG	-0.297
CCCGCCCA	-0.205
CAATCTGA	0.0772
CAGCTCAC	-0.0502

Sequence	PBM E-score
CTTTGTCC	-0.0272
CCTCGGGC	-0.209
AACGACGG	-0.0621
CGCGAGTA	-0.0234
CCACATTA	-0.101
ACGGAGGA	0.0201
CATTGTGA	-0.0602
CCAGGGGC	-0.412
CTCCCCCA	-0.412
CTCACCTC	-0.0995
AAACTGTG	0.0297
GGCCTCAC	-0.136
AGGCGCTC	-0.145
GATGACAA	0.137
GCGAACAC	-0.158
CCTTGCAG	-0.143
TAACTCAA	0.0942
ATATGCGA	0.0338
ATCTGCTG	-0.143
ATACGACA	0.0367
ATAAGAAT	0.168
AGCAACGC	0.0167
